Reference: publication PMC7819943, “Rice protein-binding microarrays: a tool to detect cis-acting elements near promoter regions in rice”
The list shows a part of the results.

target: T1, OsWOX13 (Oryza sativa, UniProt Q5QMM3 1-267); test: protein-binding microarray (RPBM); PBS, 2% BSA, 51.3 ng/ul salmon testes DNA, 50 uM zinc acetate, 200 nM TF, 25 C, 1 h; high values mean tight binding; settings: protein: recombinant; tags: N-terminal polyhistidine and DsRed monomer fusion (pET32a); label: CyDye5-dUTP incorporated in the synthesized complementary strand; 3' TTTTT single-stranded linker to array surface; dsDNA, one strand shown
T1 sequence: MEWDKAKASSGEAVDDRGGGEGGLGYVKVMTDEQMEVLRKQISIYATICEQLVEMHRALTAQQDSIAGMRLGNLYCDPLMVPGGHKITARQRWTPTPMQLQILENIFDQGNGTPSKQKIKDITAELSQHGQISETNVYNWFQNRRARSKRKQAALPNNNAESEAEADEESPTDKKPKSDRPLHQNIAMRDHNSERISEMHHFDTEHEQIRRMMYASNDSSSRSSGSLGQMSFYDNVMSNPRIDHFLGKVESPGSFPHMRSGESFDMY
Method in brief: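 The binding signal for each feature is its fluorescence intensity in arbitrary units. An Axon 4000B scanner was used to read a custom Agilent array that had been made double-stranded with Cy5-dUTP primer extension, blocked with 2% BSA, incubated at 25 °C for 1 h with 200 nM protein in PBS, 2% BSA, salmon testes DNA and 50 µM zinc acetate, and washed. The protein was an N-terminal polyhistidine–DsRed transcription factor fusion from E. coli BL21-CodonPlus, purified on Ni–NTA.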

Question: Which binding signal does the source give for “ATTAATGGGCCTGATTTGAATAGTACGTAGTATTTCTGATCGGAGTCACCTAGTGCAG” here?
Answer: 18500 fluorescence intensity (a.u.)

Question: With “ACTGCTAATGAAGAATTGAAGATCAATGCGAATTCTGCTGCGGAGTCACCTAGTGCAG” as the sequence, how does the binding signal read?
Answer: 5170 fluorescence intensity (a.u.)

Question: “TCCTCCTTGACAACCGCTTGACAGTGAATGGGTTCACCTCCGGAGTCACCTAGTGCAG” was tested. Which binding signal did it give?
Answer: 3240 fluorescence intensity (a.u.)

Question: “ATGCTTGATTTGAAGACATAGGGTTATCGAAATAGGTTTCCGGAGTCACCTAGTGCAG” was tested. Which binding signal did it give?
Answer: 18000 fluorescence intensity (a.u.)

Question: Which binding signal does the source give for “TCCTGTTAATTAATTTCTCAAGATTAGTAGTAAAAGGGTACGGAGTCACCTAGTGCAG” here?
Answer: 20700 fluorescence intensity (a.u.)

Question: With “TGATGACCAATCATTTGTTGAGGAGGATTCTTACATATCTCGGAGTCACCTAGTGCAG” as the sequence, how does the binding signal read?
Answer: 7020 fluorescence intensity (a.u.)

Question: Which binding signal does the source give for “TAATTTAATTGGTTTAAAGGTGTGTATATATTTATATCCGCGGAGTCACCTAGTGCAG” here?
Answer: 26800 fluorescence intensity (a.u.)

Question: With “ATGATTAAATAGGAGAGTGTATTCTTCCTACATCAAAATTCGGAGTCACCTAGTGCAG” as the sequence, how does the binding signal read?
Answer: 7850 fluorescence intensity (a.u.)

Question: How did the binding signal turn out when “GAATTTTAGATTGAGTTGTTTGCGGGGCTAAGTTCCCTATCGGAGTCACCTAGTGCAG” was run?
Answer: 21100 fluorescence intensity (a.u.)

Question: With “GAGAGATTGGATGTGATTATACATAAGCATTAGGGCTAAACGGAGTCACCTAGTGCAG” as the sequence, how does the binding signal read?
Answer: 36000 fluorescence intensity (a.u.)

Question: For “TATATATATATATATATATATATAGTGATGCATCTACAAACGGAGTCACCTAGTGCAG”, which binding signal is on record?
Answer: 4300 fluorescence intensity (a.u.)

Question: For “GGGTTAATTTGAGCACAGACTGCCCGTTACAGCTTTGTTGCGGAGTCACCTAGTGCAG”, which binding signal is on record?
Answer: 34400 fluorescence intensity (a.u.)

Question: With “CGGCGTAATTTCCACAGTAATTGTTTGGATTGCAGTAGGACGGAGTCACCTAGTGCAG” as the sequence, how does the binding signal read?
Answer: 33000 fluorescence intensity (a.u.)

Question: Which binding signal does the source give for “AGATGATCAATTGGGAATGAAGAGATTAAGACCATTTGATCGGAGTCACCTAGTGCAG” here?
Answer: 3610 fluorescence intensity (a.u.)

Question: How did the binding signal turn out when “ATTGATTATGTGTTCTTTAATACGATTTGTGGTAATGACTCGGAGTCACCTAGTGCAG” was run?
Answer: 33800 fluorescence intensity (a.u.)

Question: Which binding signal does the source give for “CATATGTTTCAATCTGTTAACATTCTTGATTTCATACGTACGGAGTCACCTAGTGCAG” here?
Answer: 7150 fluorescence intensity (a.u.)

Question: Which binding signal does the source give for “TCTCATCCGTGACAGTTCGTAACTGTCACCCTTCATAGATCGGAGTCACCTAGTGCAG” here?
Answer: 3260 fluorescence intensity (a.u.)

Question: How did the binding signal turn out when “TAATATCTTAATTGGTATTCGTAACCGGTAGCGTTCATACCGGAGTCACCTAGTGCAG” was run?
Answer: 22300 fluorescence intensity (a.u.)

Question: For “TTGATACTCTGATGATTGTAAAGTAAATTGTTTGAAATTTCGGAGTCACCTAGTGCAG”, which binding signal is on record?
Answer: 9650 fluorescence intensity (a.u.)

Question: For “CTTTTCCATACTTAAATTTAATGCTACTTATCTCACATGACGGAGTCACCTAGTGCAG”, which binding signal is on record?
Answer: 4210 fluorescence intensity (a.u.)

Question: How did the binding signal turn out when “CTCTAATTTATCTATAATCAATGTAATAGCTAATTCATACCGGAGTCACCTAGTGCAG” was run?
Answer: 32500 fluorescence intensity (a.u.)

Question: For “CAAAATTTGATGAATGGAAGGGTCGAAACTGAGTGATTGCCGGAGTCACCTAGTGCAG”, which binding signal is on record?
Answer: 23600 fluorescence intensity (a.u.)

Question: For “TAATATATGATTTACATATTGTTAAACTACATGGAATTCTCGGAGTCACCTAGTGCAG”, which binding signal is on record?
Answer: 6650 fluorescence intensity (a.u.)
